Data: article PMC12136788
The other results are listed elsewhere or left out.

T1: UNK ZnF1-3 (human, UniProt Q9C0B0 31-174)
T1 sequence: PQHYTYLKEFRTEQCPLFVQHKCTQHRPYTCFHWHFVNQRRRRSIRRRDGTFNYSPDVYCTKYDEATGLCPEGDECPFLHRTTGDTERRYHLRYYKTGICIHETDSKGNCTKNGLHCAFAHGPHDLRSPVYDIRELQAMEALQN

B1: 95463088_95463208_505_3pUTR_ENSMUSG00000038612_ENSMUST00000037947|mouse|control|control (ssRNA)
RNA: GGGAGUUCUACAGUCCGACGAUCGGAGGGCAGAGAGCCGUCGGCCCCGGAGCUCUUGGCCGCCUCGCUCACGCGCUCCAGGAGGGGCAGCACGGCCGGGCGCUUGCCGAUGGCCUCCGGCUCGCAGCCGUCCAGUUCCUCCUCCAACAGAGGAUUGAGCAUCA
B2: chr5:31546141:31546142:+_ENSMUSG00000029148_ENSMUST00000031034|mus_hu|FALSE|FALSE (ssRNA)
RNA: GGGAGUUCUACAGUCCGACGAUCUCUGAGCCACUGCUAAGUACUGUCUGGGACUCCCCCUCCGACAUGCUGGAAGGAACACUCAGGCCUCCCGACUCCGCGCCCCGCAGCCUGCGCUUCAGCUCCAGCUCGGGUUCCGGGGCCCAACAGAGGAUUGAGCAUCA
B3: chr9:106387587:106387588:+_ENSMUSG00000041506_ENSMUST00000047721|mus_hu|FALSE|FALSE (ssRNA)
RNA: GGGAGUUCUACAGUCCGACGAUCGCGGAGUGGGAUGAUGCAGACAGAAUUCCGAGCCUCUUUGAUUCUCCACCAUCGGCCAAGCCUGUGCUCCUGCCCUACCCCAGCCACCAGGAAGUCCCCAGAGCUGGAGAACUUGAGGCUCAACAGAGGAUUGAGCAUCA
B4: chr14:59828787:59828788:+_ENSMUSG00000035469_ENSMUST00000043227|mus_mus|FALSE|FALSE (ssRNA)
RNA: GGGAGUUCUACAGUCCGACGAUCGAGUGAAGAUUGGCCACUUUCCUACAUCCACCAUGACUGUGGCUUUGGACAAUUCCUAUAAAUAAGCUGACAUCUCUGCUGCGUGCUCCGGGUUCCUCCCCCGCAGGGCGGACAGCGCAGCAACAGAGGAUUGAGCAUCA
B5: 128907928_128914798_1089_3pUTR_ENSMUSG00000027394_ENSMUST00000035812|mouse|control|control (ssRNA)
RNA: GGGAGUUCUACAGUCCGACGAUCAGGAGCUGGAAGCUCUGGUAAGGGAGGUGUUUGGUGCUGAUGGCGGGCUCCACACUCAUGAGGCAGCUCCUUAUUAUGUGUUUGAUUUGCAGCAAAAUGCUACUUUCUAAGGUGAUGUUCCAACAGAGGAUUGAGCAUCA
B6: 32628618_32630215_2165_3pUTR_ENSMUSG00000022797_ENSMUST00000023486|mouse|control|control (ssRNA)
RNA: GGGAGUUCUACAGUCCGACGAUCUGGAGAUACAUAGGGCGACAGGAAGUGAUACUCCACUUUCAUAAUACGAUCAUUGAUUUCCCUCAUGACAAAUCUGUUUGUUUUCUCAGCAUUAUGAAAAUCAGUUGUUAGUCUAGAAGUCAACAGAGGAUUGAGCAUCA
B7: 48028008_48028128_2607_CDS_ENSG00000116062_ENST00000540021|human|control|control (ssRNA)
RNA: GGGAGUUCUACAGUCCGACGAUCGCCCUUCUUGGUAGAUUUCAACUCGUAUUCUUCUGGCAAAUUGCGAGUGGUGAAAUUCUCAGGAAUUUCCAGCUGGUAACGGUUCCUACCAAUCCCCCAAUAGACUAUGGUCCUACAGCCCAACAGAGGAUUGAGCAUCA
B8: chr7:99057753:99057754:-_ENSG00000241468_ENST00000394186|hu_hu|FALSE|FALSE (ssRNA)
RNA: GGGAGUUCUACAGUCCGACGAUCCCGGUAGUAACCUCUUUGAAACGCUCCGAAAAUGCCACUAGGACUGAAGUCCCGCAUCAAGAUCCAGCUUGGCAGCUCCCCCAGUUUGACCUCCAGAAGUUUCUUGUCCUUCACUGGUACCAACAGAGGAUUGAGCAUCA
B9: chr1:93811951:93811952:+_ENSG00000117505_ENST00000370267|hu_hu|FALSE|FALSE (ssRNA)
RNA: GGGAGUUCUACAGUCCGACGAUCGAGUUUGGGAAGAAAGUGGGGGCCCGAGGAUUCUAGAGAGAGCACAGCCCAGGCUGAGGAGGGGAAAGCGCGGUGGUCCGGAAAUUUGAGCGGCUGGGGAACCACCUUCGUGUCUCCUCACAACAGAGGAUUGAGCAUCA
B10: 31426652_31426772_2533_CDS_ENSG00000134644_ENST00000257075|human|control|control (ssRNA)
RNA: GGGAGUUCUACAGUCCGACGAUCCAAAAGCCUGCUCCUGCCAGAAGGCAUGACAUCAGACAUUCCAUAUCGCAAACGAGAGGAAGAGAAAAGAGUGCUGCUCGGGCUGAAGAGGCUGGAGGCGCUGCUUGCACUGCGGUACUUCAACAGAGGAUUGAGCAUCA
B11: chr17:87533601:87533602:+_ENSMUSG00000037104_ENSMUST00000041369|mus_mus|FALSE|FALSE (ssRNA)
RNA: GGGAGUUCUACAGUCCGACGAUCUGUUGAGUGUGGGCUCACAGGGGCGGUAUGCUGUUUAAUCAAAUGCCACUUUUGUGCUAAAUCCGAGCCAGCAGGAAAAGGGCAUUUCUCCAGCAUUAAUUCAGAAAGAUGUAUUUUUCUCAACAGAGGAUUGAGCAUCA
B12: chr7:141450121:141450122:+_ENSG00000106028_ENST00000265304|hu_mus|hu_hu_hu_mus_True|1_68 (ssRNA)
RNA: GGGAGUUCUACAGUCCGACGAUCUCAUCCGUUCUAUGCCUUUUCUUUUGUCUGGUCACUCAGAAAUAUAAUAUUAUCAGCUAUGAUUGUUGUUGCUUGCCGCCUCACAUUGUUUUUAUCCAUGUACUCGCCAUAGUCUAUUUUCAACAGAGGAUUGAGCAUCA
B13: chr7:30948173:30948174:-_ENSMUSG00000037029_ENSMUST00000062181|mus_mus|FALSE|FALSE (ssRNA)
RNA: GGGAGUUCUACAGUCCGACGAUCGGAGGACUUCCAACUGUAUAAAGCAGAGGAUGUGUUCCCAUACAACUGUUUAAAUCUAAACUAUGUUUCAAGCUCAAAACUUUAAGCUUUGAACAAUGUUUUGCCUUUUAAAAAUUGAAGCAACAGAGGAUUGAGCAUCA
B14: chr10:94963105:94963106:-_ENSMUSG00000062981_ENSMUST00000075829|mus_hu|FALSE|FALSE (ssRNA)
RNA: GGGAGUUCUACAGUCCGACGAUCUUAUCAAGUGGUAUGAAAAAAGAUGUUCUGAAGAGAAACUGCUUUUAGAAUCUGCUUCUAAGCAUACCAAUUUCUACUCCUGCUUGACGGCUUCUCACCACGAACCCGCCAUCUUGUUUCCAACAGAGGAUUGAGCAUCA
B15: chr14:78183846:78183847:+_ENSG00000119705_ENST00000557342|hu_mus|FALSE|FALSE (ssRNA)
RNA: GGGAGUUCUACAGUCCGACGAUCUCUCAGAAAUCUUUCUUCAUCAGAUGUUUGAGCUCCGUGCAAAGCCUUUGCUCUUUGAGCUUGAACGUGGAUCUAUGGGAGGGAAAGCACUGUCAGAAAAGGUAAUUUUUUUUUUAAAGACAACAGAGGAUUGAGCAUCA
B16: chr6:146598974:146598975:+_ENSMUSG00000030291_ENSMUST00000032429|mus_mus|motif|central (ssRNA)
RNA: GGGAGUUCUACAGUCCGACGAUCCAGUGGCAAUUUCAGAGUUUUUUACUUAUCAAGAGUGAAAACAGAACACAAUGAAAACGGGCGGAAAAAAAAGGCAACACAGUCAUAGCAUAUGAUAUUCUGUAGCUGUUGGUAGGGCUUCAACAGAGGAUUGAGCAUCA
B17: chr1:109605286:109605287:-_ENSG00000197780_ENST00000461096|hu_mus|hu_hu_hu_mus_True|28_98 (ssRNA)
RNA: GGGAGUUCUACAGUCCGACGAUCAAGUUUCAGAGUAUUCAGUGAUCACCUCUUUAAAUGCAAUUAUCCUUAUUAUAAGCUAAGCAGAAUAAUAAUUUAAUACCGUAAGUAAAUACAACACAAAGCCUGAACCGCGAAAAUGGUCAACAGAGGAUUGAGCAUCA
B18: chr9:80412558:80412559:-_ENSG00000156052_ENST00000286548|hu_hu|FALSE|FALSE (ssRNA)
RNA: GGGAGUUCUACAGUCCGACGAUCGGUGGGGACUCGAACUCUAAGCACAUCUUGUUGCGUAGGCAGGUAGGCAGGGUCAGCUACGCGGUCCAAGUCAUUAAGAUAGUAUUUGGUAGAGUCAGAUAAUUGAUAUUCUCGUCGUCUCAACAGAGGAUUGAGCAUCA
B19: chr16:94651144:94651145:+_ENSMUSG00000040785_ENSMUST00000117648|mus_mus|FALSE|FALSE (ssRNA)
RNA: GGGAGUUCUACAGUCCGACGAUCCUUCUCUUGGAUCAAGUGACCGAUAACAUAGUCCACUGCUUCAUGGACAAAAUUUUUGCUAGAAAAGCAUGUUGUAUAGUCUUCCGUGCUCAGAACCUUCCAAGAGAGCAGCUCUUUGAGCAACAGAGGAUUGAGCAUCA
B20: chr7:149068622:149068623:-_ENSMUSG00000025139_ENSMUST00000001950|mus_hu|mus_mus_mus_hu_False|8_78 (ssRNA)
RNA: GGGAGUUCUACAGUCCGACGAUCGUGAGGCCUCUGAGUGUGGCUUGUGGUCUGUCCUGUCUGCAGUUUGUUAAUAUCACGGAACAUACCAUCUAGAACGUUCCAGUCCCGCCUGACACCUUCAUUCGCAAGAGGGCAGAAAUCCAACAGAGGAUUGAGCAUCA
B21: chr12:125510211:125510212:+_ENSG00000184992_ENST00000341446|hu_hu|motif|central (ssRNA)
RNA: GGGAGUUCUACAGUCCGACGAUCUUACUGUACAACUAAAUAUGGUUAUAUCCUUUGUUUAAAAAAUAUUUUUUCCCCCACGGAUUACACUUCGUGUGUAGUUCCACGUCAAUGAUCUUUCCGCUCUUCUGGGAAUGUGUCCUACAACAGAGGAUUGAGCAUCA
B22: chr4:148551591:148551592:-_ENSMUSG00000063077_ENSMUST00000060537|mus_hu|mus_mus_mus_hu_False|8_8 (ssRNA)
RNA: GGGAGUUCUACAGUCCGACGAUCACCUGACAAAAUUAAAUAUCCCUGUAAAUUAGACAAUAAGCAGCAGGCAACAAAGUCUUUGCUUUGGAAUAUGUGCCAGGAAAAGUCAUCUUGUUUUUAGAUCACACCUUUCAGUUCACACAACAGAGGAUUGAGCAUCA

target: T1, UNK ZnF1-3; assay: nsRBNS (natural sequence RNA bind-n-seq); RBNS binding buffer (assumed for nsRBNS): 25 mM Tris pH 7.5, 150 mM KCl, 3 mM MgCl2, 0.01% Triton X-100, 500 ug/ml BSA, 20 U/ml SUPERase-In, 4 C; UNK is unkempt and MSI1 is Musashi-1; names of the RNAs are library labels; protein concentration not given here; high values mean tight binding

Binder	binding signal [enrichment R]
B1	0.61
B2	0.783
B3	1.18
B4	1.57
B5	0.854
B6	0.618
B7	0.791
B8	1.21
B9	1.85
B10	1.44
B11	0.691
B12	0.527
B13	0.906
B14	0.555
B15	1.01
B16	1.8
B17	0.996
B18	1.26
B19	0.604
B20	0.928
B21	0.705
B22	1.26
